Hit rate of the full screen: of about 320,000 compounds, about 9,100 (2.8%) were called active. The shares of active, inactive and inconclusive entries below differ from those in the screen. The call rests on the fitted dose curve; in most records, active means well fitted activation curve with a large enough effect; inconclusive means small, poorly fitted or top-dose-only effect; inactive means no such curve, though single readings can be large or run the other way. Potencies of inconclusive entries are left out as doubtful fits.
Test: qHTS Assay for Rab9 Promoter Activators; further: nearly all actives have a fitted effect of over 60% in size; on activation, negative = inhibition: % of control where 0% means no effect
Conditions: Huh7 Rab9 promoter-luciferase reporter, luminescence, 24 h; series mostly up to 9.22 µM
Method in brief: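 Luciferase signal after 10 min detection reagent at ambient indicates Rab9 promoter upregulation; stably transfected Huh7 cells were treated 24 h with compound in DMSO at 37 °C, 5% CO2.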
Potency means the concentration at half of the fitted maximal effect; tags describe the fitted curve by direction and shape.

For CCOc1ccc(N/C=C/C(=O)c2ccc(OC)cc2)cc1, which Potency is on record?
Its Potency is inconclusive [activator, partial curve].

With O=C(CN1CCOCC1)Nc1ccc(-c2nc3ccccc3[nH]2)cc1 as the compound, how does the Potency read?
Its Potency is inconclusive [activator, partial curve].

With O=C(COc1ccc2c(c1)OCO2)Nc1cccc(F)c1 as the compound, how does the Potency read?
The Potency was “inactive”.

For NNc1nc2ccc(Cl)cc2s1, which Potency is on record?
The Potency was inconclusive [activator, partial curve].

Which Potency does the source give for O=C(Nc1ccc2c(c1)nc1n2CCOC1)C1CCCCC1 here?
Its Potency is inconclusive [activator, single point].

For Cc1ccc2c(N)c(C(=O)c3ccccc3)sc2n1, which Potency is on record?
Its Potency is active: 3.16 µM.

For O=C(CSc1nc(-c2ccc(F)cc2)nc2ccc(F)cc12)Nc1cccc(C(=O)O)c1, which Potency is on record?
Its Potency is “inactive”.

Which Potency does the source give for O=C(NCCN1CCOCC1)c1cc(-c2cccs2)on1 here?
Its Potency is inconclusive [activator, partial curve].

For O=C(NCCC1=CCCCC1)c1cnc2n(c1=O)CCS2, which Potency is on record?
The Potency was inconclusive [activator, partial curve].

Which Potency does the source give for CC1CCCC(C)N1/N=C/C=C/c1ccccc1[N+](=O)[O-] (stereo not drawn) here?
Its Potency is inconclusive [activator, single point].

Which Potency does the source give for NS(=O)(=O)c1ccccc1NC(=O)c1c(O)c2ccccc2[nH]c1=O here?
The Potency was active: 0.447 µM.

With O=C(Nc1nc(-c2ccccn2)cs1)C12CC3CC(CC(O)(C3)C1)C2 as the compound, how does the Potency read?
Its Potency is active: 3.16 µM.

Which Potency does the source give for COCCn1c(Cc2ccccc2)nnc1SCC(=O)Nc1oc(C)c2c(C)n[nH]c(=O)c12 here?
The Potency was “inactive”.

Which Potency does the source give for CNC(=O)c1ccc(NC(=O)/C=C/c2cccc(F)c2)cc1 here?
Its Potency is inconclusive [activator, partial curve].

With O=C(CSc1cc([N+](=O)[O-])cc(S(=O)(=O)Cc2ccccc2)c1)NC1CC1 as the compound, how does the Potency read?
The Potency was “inactive”.

With CN(C(=O)COC(=O)c1ccc(Cl)cc1N)C1CCCCC1 as the compound, how does the Potency read?
Its Potency is inconclusive [activator, partial curve].

With Cc1ccc(C(=O)ONc2ccc(N=NC(=O)c3ccccc3O)cc2)cc1 as the compound, how does the Potency read?
Its Potency is inconclusive [activator, partial curve].

For Brc1ccc(/C=N/Nc2ccccc2)cc1, which Potency is on record?
The Potency was inconclusive [activator, single point].

Which Potency does the source give for C=CCN(C(=O)CSc1nnnn1C)c1nc(-c2ccccc2)cs1 here?
The Potency was inconclusive [activator, single point].

Which Potency does the source give for Cc1ccc(C(=O)Nc2cccc(C(=O)NC3CCCC3)c2)cc1 here?
The Potency was inconclusive [activator, single point].

With O=C1C2CC=CCC2C(=O)N1Cc1nnc(-c2ccc(Cl)cc2)o1 (stereo not drawn) as the compound, how does the Potency read?
The Potency was inconclusive [activator, single point].

With O=C(Nc1nccs1)c1ccc(COc2ccccc2)o1 as the compound, how does the Potency read?
The Potency was active: 4.47 µM.

Which Potency does the source give for Cc1c(C(=O)NCC(C)C)sc2nc(-c3ccc(F)cc3)cn12 here?
Its Potency is active: 2 µM.

With CCOc1ccc(C(=O)Nc2cc(C)on2)cc1 as the compound, how does the Potency read?
The Potency was active: 1.41 µM.

For O=C(COc1ccccc1Br)NCc1ccccn1, which Potency is on record?
The Potency was inconclusive [activator, single point].

For O=C(Nc1cccc(Cl)c1)Nc1ccc2nccnc2c1, which Potency is on record?
The Potency was active: 2.24 µM.

For COc1ccc(Cl)cc1S(=O)(=O)N1CCC(C(=O)NC2CC2)CC1, which Potency is on record?
Its Potency is “inactive”.

With Cc1cc(C)cc(N/C(N)=N/c2nc(C)cc(C)n2)c1 as the compound, how does the Potency read?
Its Potency is “inactive”.

For Cc1ccc(C)c(NC(=O)c2cnn(-c3ccccc3)c2C)c1, which Potency is on record?
Its Potency is inconclusive [activator, partial curve].

Which Potency does the source give for CS/C(N)=N/N=C/c1ccc([N+](=O)[O-])cc1 here?
The Potency was inconclusive [activator, partial curve].

Which Potency does the source give for CN(CC(=O)NC(=O)NC(C)(C)C)CC(=O)Nc1ccccc1Cl here?
The Potency was “inactive”.

With CC(=NCc1ccco1)c1c(C)[nH]n(-c2nc3ccccc3s2)c1=O as the compound, how does the Potency read?
Its Potency is inconclusive [activator, partial curve, poor fit].

With Cc1ccc(S(=O)(=O)N(C)CC(=O)Nc2ccc(C)cn2)cc1 as the compound, how does the Potency read?
The Potency was inconclusive [activator, single point].

With COCC1CCCCN1C(=O)c1ccc(OC2CCN(Cc3ccccn3)CC2)cc1 (stereo not drawn) as the compound, how does the Potency read?
The Potency was “inactive”.

With O=C1CCCc2nc(N3CCN(Cc4ccccc4)CC3)ncc21 as the compound, how does the Potency read?
The Potency was “inactive”.

With Cc1ccc(Nc2nc3ccccc3n3cnnc23)cc1C as the compound, how does the Potency read?
Its Potency is inconclusive [activator, partial curve].

With CC(=O)N1CCc2cc(NC(=O)c3ccc(C)cc3)ccc21 as the compound, how does the Potency read?
The Potency was active: 0.562 µM.

For O=C(COC(=O)C1CC2C=CC1C2)Nc1ccccc1F (stereo not drawn), which Potency is on record?
Its Potency is inconclusive [activator, single point].

For Cc1ccc2nc(-c3ccc(NC(=O)CN4CCN(C(=O)c5ccco5)CC4)cc3)sc2c1, which Potency is on record?
Its Potency is inconclusive [activator, partial curve].

Which activation, negative = inhibition does the source give for CCN(CC)CCCNC(=O)c1cc(Nc2ccc(OC)cc2)nc2ccccc12 here?
The activation, negative = inhibition was inactive: 0.624% [at 1.84 µM].

With Fc1ccccc1NC(=S)NCCc1ccccc1 as the compound, how does the Potency read?
The Potency was inconclusive [activator, partial curve].

With COCCn1c(N)c(N(Cc2ccccc2)C(=O)CSCC(=O)Nc2ccc(C)cc2)c(=O)[nH]c1=O as the compound, how does the Potency read?
Its Potency is “inactive”.

Which Potency does the source give for O=C(Nc1ccc2ccccc2c1)c1ccc(Br)o1 here?
The Potency was active: 3.55 µM.

For CCOc1ccc(/C=C/C2=NNC(=O)CC2)cc1, which Potency is on record?
Its Potency is inconclusive [activator, partial curve].

Which Potency does the source give for O=C(O)c1cccc(NC(=O)c2cccc(S(=O)(=O)N3CCc4ccccc43)c2)c1 here?
The Potency was “inactive”.

Which Potency does the source give for COc1ccc(-n2nc3ccc(NS(C)(=O)=O)cc3n2)cc1Cl here?
The Potency was “inactive”.

For COc1ccccc1-c1coc2cc(OC(=O)N3CCOCC3)ccc2c1=O, which Potency is on record?
Its Potency is inconclusive [activator, partial curve].

Which Potency does the source give for CC(C)C(=O)Nc1ccc(C(=O)Nc2nnc(C(C)C)s2)cc1 here?
The Potency was inconclusive [activator, single point].

With C=C(C)CNC(=O)CCc1nnc(C2(c3ccc(Cl)cc3)CCC2)o1 as the compound, how does the Potency read?
The Potency was inconclusive [activator, single point].

With CCCCCOc1ccc(Cl)cc1CN1CCOCC1 as the compound, how does the Potency read?
The Potency was inconclusive [activator, single point].

For O=C(O)CCc1ccc(S(=O)(=O)Nc2ccccc2C(=O)NCCc2ccccc2)cc1, which Potency is on record?
Its Potency is active: 3.16 µM.

With CN(C)/C=C/C(=O)c1ccc(Cl)cc1 as the compound, how does the Potency read?
The Potency was “inactive”.

With O=C(O)c1ccc(NC(=O)c2cc3ccccc3o2)cc1 as the compound, how does the Potency read?
Its Potency is inconclusive [activator, partial curve].

With O=C(NCCn1cccn1)c1ccc(OC2CCN(CCc3ccccc3)CC2)cc1 as the compound, how does the Potency read?
Its Potency is inconclusive [activator, single point].

With Cc1cccc(C(=O)Nc2sc(-c3ccccc3)cc2C(=O)O)c1 as the compound, how does the Potency read?
The Potency was inconclusive [activator, single point].

For Cc1ccc(C2/C(=C(/O)c3cnn(-c4ccccc4)c3C)C(=O)C(=O)N2CCN2CCOCC2)o1 (stereo not drawn), which Potency is on record?
The Potency was active: 2.82 µM.

For O=C(N/N=C/c1ccc(OCc2ccccc2)cc1)c1ccco1, which Potency is on record?
The Potency was active: 2.82 µM.

Which Potency does the source give for COc1ccc(NC(=O)CCSc2ccc(F)cc2)cc1 here?
Its Potency is active: 3.55 µM.

Which Potency does the source give for O=C(Nc1nncs1)c1cc2c(s1)CCC2 here?
The Potency was active: 2.82 µM.

Which Potency does the source give for COc1ccc(C(=O)Nc2nnc(C(F)(F)F)s2)cc1 here?
The Potency was active: 2.51 µM.

Which Potency does the source give for COc1ccc(C2CC(=O)c3ccccc3O2)cc1 (stereo not drawn) here?
The Potency was inconclusive [activator, partial curve].

Which Potency does the source give for Clc1cccc(N/N=C/c2ccc(N3CCOCC3)cc2)c1 here?
Its Potency is inconclusive [activator, single point].

Which Potency does the source give for COc1ccc(OCc2cc(C(=O)N(C)C(C)c3ccon3)no2)c(Cl)c1 (stereo not drawn) here?
The Potency was active: 2.51 µM.

With COC(=O)c1ccc(N2OC3(C)C=CC2CC3)cc1 (stereo not drawn) as the compound, how does the Potency read?
The Potency was inconclusive [activator, single point].

For CN1N=C(C(=O)Nc2ccc3c(c2)CCC3)CCC1=O, which Potency is on record?
Its Potency is inconclusive [activator, partial curve].

For Fc1ccc(-[n+]2nc(Nc3ccccc3)sc2-c2c3ccccc3cc3ccccc23)cc1, which Potency is on record?
Its Potency is “inactive”.

With Cc1nc2ccc(S(=O)(=O)NCC(=O)NC(C)c3ccccc3)cc2s1 (stereo not drawn) as the compound, how does the Potency read?
The Potency was inconclusive [activator, single point].

Which Potency does the source give for CCOC(=O)c1csc(-c2ccc3c(c2)CCO3)n1 here?
The Potency was active: 2.24 µM.

Which Potency does the source give for Cc1ccc(Nc2nc3c(s2)CCC3)c(C)c1 here?
The Potency was inconclusive [activator, partial curve].

With O=C1C(c2ccnc3ccccc23)=C(O)c2ccccc21 as the compound, how does the Potency read?
The Potency was inconclusive [activator, single point].

Which Potency does the source give for COCCN1CC(C(=O)N2CCC(Oc3ccccc3OC)CC2)CCC1=O (stereo not drawn) here?
The Potency was “inactive”.

With Nc1ccc2nc(CCc3ccccc3)[nH]c2c1 as the compound, how does the Potency read?
The Potency was inconclusive [activator, partial curve].

With COc1ccc(/C=N/NC(=O)c2ccc[nH]2)cc1 as the compound, how does the Potency read?
The Potency was active: 1.58 µM.

With CCOC(=O)N1CCN(c2cc(=O)n(-c3ccc(C)cc3)c(=O)[nH]2)CC1 as the compound, how does the Potency read?
Its Potency is “inactive”.

Which Potency does the source give for O=C(c1ccco1)N1CCN(C(c2ccccn2)c2nnnn2C2CCCC2)CC1 (stereo not drawn) here?
The Potency was inconclusive [activator, partial curve].

With CCOc1ccc(OCCC(=O)N2CCN(S(=O)(=O)c3ccc(F)cc3)CC2)cc1 as the compound, how does the Potency read?
The Potency was “inactive”.

For O=C1c2cccc3cccc(c23)C(=O)N1/N=C/c1ccc(O)cc1O, which Potency is on record?
The Potency was “inactive”.

For Cc1nc2cc(-c3ccccc3)sc2c(=O)n1N, which Potency is on record?
The Potency was inconclusive [activator, partial curve].
